Reference: the supplement of paper PMC3334620
In all, about 33,000 sequences were measured (“E-score (-0.5 to 0.5)”: median about -0.012, highest 2% from about 0.27 on). This is one part of the list.

Target: T1, Vhr1 (UniProt P40522)
T1 sequence: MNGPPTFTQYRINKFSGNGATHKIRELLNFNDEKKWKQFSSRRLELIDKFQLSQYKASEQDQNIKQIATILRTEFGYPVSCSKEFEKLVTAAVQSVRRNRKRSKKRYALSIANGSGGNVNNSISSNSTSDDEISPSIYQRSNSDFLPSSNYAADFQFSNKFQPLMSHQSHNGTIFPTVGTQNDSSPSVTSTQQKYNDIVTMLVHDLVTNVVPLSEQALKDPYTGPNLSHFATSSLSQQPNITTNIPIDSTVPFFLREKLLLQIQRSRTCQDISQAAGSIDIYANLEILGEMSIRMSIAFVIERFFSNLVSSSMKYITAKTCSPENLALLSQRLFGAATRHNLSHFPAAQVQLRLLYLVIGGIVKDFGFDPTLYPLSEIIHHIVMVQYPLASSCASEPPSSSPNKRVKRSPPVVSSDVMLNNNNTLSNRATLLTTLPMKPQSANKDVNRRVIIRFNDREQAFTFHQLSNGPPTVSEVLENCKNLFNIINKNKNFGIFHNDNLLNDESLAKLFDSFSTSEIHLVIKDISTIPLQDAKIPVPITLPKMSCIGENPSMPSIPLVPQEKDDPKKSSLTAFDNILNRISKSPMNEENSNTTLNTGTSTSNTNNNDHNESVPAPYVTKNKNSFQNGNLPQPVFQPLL
Test: PBM E-score (8-mer binding enrichment) (E-score (-0.5 to 0.5)); higher = stronger / more preferred TF binding; most listed sequences are background and not binding sites
Conditions: protein concentration: 200 nM; construct: GST-full length
How it was run: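 Detection of bound protein used fluorescent anti-GST, with scans normalised by masliner. The proteins were GST-tagged yeast transcription factors applied at about 100-200 nM to universal all-10-mer Agilent arrays made double-stranded by primer extension. Each ungapped eight-base word, pooled with its reverse complement, was scored with an E-score from the Universal PBM Analysis Suite.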

First: GATATCGA
Second: GAACCAAC
The “PBM E-score” value of the first is lower: -0.0237 for the first, 0.156 for the second.

Going from CGCCGTTA to GGTTCCCA, the “PBM E-score” value falls from 0.053 to 0.0487.

First: GGAATGAC
Second: ATAACCAC
The “PBM E-score” value of the first is lower: 0.116 for the first, 0.226 for the second.

Going from GTCACGAC to CCCAACAG, the “PBM E-score” value falls from 0.111 to -0.0293.

Compared with ATTGGAGC, AAATCAGT is lower in “PBM E-score” value: 0.112 for the first, -0.144 for the second.

Going from CAAACGCC to CAGACGAC, the “PBM E-score” value rises from 0.0838 to 0.126.

First: ACGTTAGA
Second: AAGTCACA
The “PBM E-score” value of the first is lower: -0.18 for the first, 0.246 for the second.

Compared with GTGCCTTA, AGTACCTC is higher in “PBM E-score” value: -0.128 for the first, 0.00267 for the second.

Going from GTTTAACA to GAACAGGA, the “PBM E-score” value rises from -0.143 to -0.0169.

First: AGTGATAC
Second: ATGTCTAA
The “PBM E-score” value of the first is higher: 0.237 for the first, -0.0254 for the second.

Compared with CCTCCACA, CAAGTTGC is lower in “PBM E-score” value: -0.00904 for the first, -0.109 for the second.

First: ATATACCA
Second: ATTAATGG
The “PBM E-score” value of the first is lower: 0.0472 for the first, 0.112 for the second.

First: GCTGAGTA
Second: ACTCGTAC
The “PBM E-score” value of the first is lower: 0.0378 for the first, 0.125 for the second.

Going from GGCTAACA to ATACCGAC, the “PBM E-score” value rises from -0.0545 to 0.066.

First: CCAACTGG
Second: ATTAACTA
The “PBM E-score” value of the first is lower: 0.00035 for the first, 0.0964 for the second.

First: AAATATAC
Second: CGACCAAA
The “PBM E-score” value of the first is lower: -0.0212 for the first, 0.0304 for the second.

First: CGTATGGA
Second: AACTAGTT
The “PBM E-score” value of the first is higher: -0.0114 for the first, -0.125 for the second.

Compared with GTTCTCCA, TAGGTGGA is higher in “PBM E-score” value: -0.111 for the first, 0.00371 for the second.

Going from CCATATAG to GGATCATA, the “PBM E-score” value rises from 0.0114 to 0.113.

First: ATCGAATG
Second: CTATGTAA
The “PBM E-score” value of the first is lower: 0.0677 for the first, 0.0968 for the second.

First: CGATCCAA
Second: AGCACTAT
The “PBM E-score” value of the first is lower: -0.0793 for the first, 0.0206 for the second.

Compared with CACACTTA, GAGGAGTA is lower in “PBM E-score” value: 0.0546 for the first, -0.0872 for the second.

Compared with GCAACGTA, AGTGGCTG is higher in “PBM E-score” value: -0.116 for the first, 0.172 for the second.

Compared with AGGCCTGA, AGTCTATC is lower in “PBM E-score” value: 0.057 for the first, -0.0607 for the second.

First: CCCTTAAG
Second: GGTGAACC
The “PBM E-score” value of the first is lower: -0.177 for the first, 0.0932 for the second.

First: CTCGTGGC
Second: CCCCGATA
The “PBM E-score” value of the first is higher: 0.0253 for the first, -0.0655 for the second.

Going from CCTAAGTA to AACGGCCT, the “PBM E-score” value falls from -0.0946 to -0.166.

Going from AGTTAGAA to CCGGTGTA, the “PBM E-score” value rises from -0.106 to 0.0823.

First: CTAAAAGA
Second: AATAACGC
The “PBM E-score” value of the first is higher: -0.0922 for the first, -0.123 for the second.

Compared with ACAACATC, TATATTGA is higher in “PBM E-score” value: -0.049 for the first, 0.163 for the second.

Going from ATCCGATC to GCTTATCA, the “PBM E-score” value falls from 0.208 to 0.129.

Going from CGCTCGTC to ACTGCACG, the “PBM E-score” value rises from -0.213 to 0.145.

First: GTTCTAAA
Second: CGGAGTTA
The “PBM E-score” value of the first is lower: -0.164 for the first, 0.111 for the second.

Going from TCGAGGAA to CCCCGAGA, the “PBM E-score” value rises from -0.233 to -0.151.

Going from AACACTTG to GCCTACAA, the “PBM E-score” value rises from -0.0756 to -0.00036.

Compared with ACGTTTCC, CGTCCGCA is higher in “PBM E-score” value: -0.257 for the first, -0.0416 for the second.

Compared with GATGATTA, CGCTCCAA is lower in “PBM E-score” value: 0.337 for the first, -0.121 for the second.

First: AAAGCTGC
Second: ACCGGGCA
The “PBM E-score” value of the first is higher: -0.0868 for the first, -0.151 for the second.

Compared with ATGCCTCG, CATAAGAG is lower in “PBM E-score” value: 0.0771 for the first, 0.0228 for the second.

Going from AGAAGCTC to AACGGTGG, the “PBM E-score” value rises from -0.238 to -0.15.

First: AGAGAGGG
Second: CATGCAGC
The “PBM E-score” value of the first is lower: -0.217 for the first, 0.125 for the second.

Compared with GGAGTGCC, GCCCGACA is higher in “PBM E-score” value: -0.124 for the first, 0.22 for the second.

Going from CGCGTCCG to ACGATGAC, the “PBM E-score” value rises from 0.103 to 0.201.

First: AACCGATG
Second: ATCTTCCC
The “PBM E-score” value of the first is higher: 0.0505 for the first, -0.0634 for the second.

First: CCAAGATC
Second: GTCAATCA
The “PBM E-score” value of the first is lower: -0.0828 for the first, 0.221 for the second.

First: AAATGTCT
Second: AATGAGCC
The “PBM E-score” value of the first is lower: -0.0752 for the first, -0.00477 for the second.

Compared with CGACCCCC, GAGGTCAC is higher in “PBM E-score” value: -0.261 for the first, 0.00149 for the second.

Compared with ACCGGTGG, CCACAGAC is higher in “PBM E-score” value: -0.19 for the first, 0.027 for the second.

Going from GGACTCAC to TAATCACA, the “PBM E-score” value falls from 0.372 to 0.222.

First: ACGAAAGC
Second: ATGAACCG
The “PBM E-score” value of the first is lower: -0.156 for the first, 0.0189 for the second.

First: ACCTTAAG
Second: CCCCGAAA
The “PBM E-score” value of the first is lower: -0.186 for the first, -0.131 for the second.

Compared with AATCGTCG, ACGTTGAC is lower in “PBM E-score” value: 0.138 for the first, 0.0527 for the second.

Compared with CAAGGCGG, AGAAGCTA is lower in “PBM E-score” value: 0.0629 for the first, -0.0653 for the second.

Going from ATACCCAA to AATGGCAC, the “PBM E-score” value falls from 0.00553 to -0.0953.

First: GTCCCCAA
Second: GCAGGTAA
The “PBM E-score” value of the first is higher: 0.0184 for the first, -0.116 for the second.

Going from AATGCGCG to GTGGTAGA, the “PBM E-score” value falls from 0.193 to -0.092.

First: CTCGCGCA
Second: ACACGCCT
The “PBM E-score” value of the first is lower: -0.0905 for the first, -0.0326 for the second.

Compared with ATCTGCTA, AATGACCG is higher in “PBM E-score” value: -0.0634 for the first, 0.0377 for the second.

Compared with CCGTCGAC, GCTGATAC is lower in “PBM E-score” value: 0.0775 for the first, 0.0137 for the second.

First: CCCCAGGA
Second: ACTGTGTG
The “PBM E-score” value of the first is lower: -0.0514 for the first, 0.261 for the second.

Going from AACCTAGT to ATTTTTAC, the “PBM E-score” value falls from 0.0742 to -0.263.

Compared with CGTCTATA, ACAGTAGT is higher in “PBM E-score” value: 0.00266 for the first, 0.211 for the second.

Compared with GCGTAGAA, CACGACCC is higher in “PBM E-score” value: -0.0539 for the first, 0.0607 for the second.

Going from CCGTCAGA to CCGCCGGC, the “PBM E-score” value rises from -0.117 to -0.0261.

Compared with CTTTCCCC, ACTGAAAC is higher in “PBM E-score” value: -0.0508 for the first, 0.195 for the second.

Going from ACACAAAA to ATGTTGTA, the “PBM E-score” value rises from -0.0345 to 0.11.

Compared with AGCTGCTG, CATATAGA is higher in “PBM E-score” value: 0.0783 for the first, 0.189 for the second.

First: ATCTGGTG
Second: ATGCCCAA
The “PBM E-score” value of the first is higher: 0.13 for the first, -0.161 for the second.

Going from ACGCGATC to AGTCTGAT, the “PBM E-score” value rises from 0.0331 to 0.132.

First: CGAGGACA
Second: GAGACACC
The “PBM E-score” value of the first is lower: -0.0952 for the first, 0.151 for the second.

Compared with GCCGATGA, GGCTTCAC is lower in “PBM E-score” value: 0.12 for the first, -0.178 for the second.

Going from AAGTGTGT to GGAAAGGA, the “PBM E-score” value falls from 0.0443 to -0.0683.

Compared with GACCTAAC, AACGCCGG is lower in “PBM E-score” value: 0.109 for the first, 0.00627 for the second.

Compared with CTAAACGA, CTTCTCGA is lower in “PBM E-score” value: -0.157 for the first, -0.171 for the second.

First: ACCCACCT
Second: AGTCGAAT
The “PBM E-score” value of the first is lower: 0.0548 for the first, 0.113 for the second.

First: AGGTGGGC
Second: AACCGTTC
The “PBM E-score” value of the first is lower: -0.106 for the first, -0.0164 for the second.

Going from CCTGTCAC to TATAACAA, the “PBM E-score” value rises from -0.008 to 0.154.

First: ATTTCGTC
Second: CCCGAGGG
The “PBM E-score” value of the first is higher: 0.0081 for the first, -0.0668 for the second.

Going from GTGAAGTA to AATGAGAA, the “PBM E-score” value falls from -0.185 to -0.264.

Compared with CCTGTACC, CCGACAAC is higher in “PBM E-score” value: -0.0168 for the first, 0.0395 for the second.

First: CGTCACAG
Second: ACGCACAC
The “PBM E-score” value of the first is lower: 0.152 for the first, 0.199 for the second.

First: AGTGTGAT
Second: ATAAGCGA
The “PBM E-score” value of the first is higher: 0.296 for the first, -0.0341 for the second.

First: ATTGCACA
Second: CGCACGAC
The “PBM E-score” value of the first is higher: 0.0916 for the first, -0.00874 for the second.

Compared with CGGGGAGC, GAGAAGTA is lower in “PBM E-score” value: -0.0465 for the first, -0.164 for the second.

Compared with CTCCCAGA, GCCATGGC is higher in “PBM E-score” value: -0.222 for the first, -0.00308 for the second.

Going from ACAGAAGC to AGCACCCA, the “PBM E-score” value falls from -0.00183 to -0.0539.
